Test results taken from PubChem BioAssay AID360 (National Center for Advancing Translational Sciences (NCATS), 2006).
The whole screen tested about 48,000 compounds, of which about 550 (1.1%) were called active. Roughly 4% stayed inconclusive and do not appear here. Cut-off read from the data, not from the text of the source: active = potency below about 15 µM; inconclusive = mostly about 16 µM to 33 µM; inactive = weaker than that. The list shows a part of the results.

target: Lysosomal acid glucosylceramidase (Homo sapiens) (UniProt P04062); assay: Glucocerebrosidase; conditions: purified enzyme, resorufin glucoside fluorescence (screen aimed at inhibitors), 20 min;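 note: the screen sought inhibitors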
Method in brief: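 Wild-type enzyme at 0.2 nM final in 50mM citric acid/KH2PO4, 10mM sodium taurocholate, 0.01% tween-20, pH 5.9, with resorufin beta-D-glucopyranoside at 30 uM final. Compounds titrated, 20 min at RT, red fluorescence read; AC50 from titration.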
Potency is the fitted concentration of half-maximal effect.

Sequence of UniProt P04062 (P04062 whole entry, looked up): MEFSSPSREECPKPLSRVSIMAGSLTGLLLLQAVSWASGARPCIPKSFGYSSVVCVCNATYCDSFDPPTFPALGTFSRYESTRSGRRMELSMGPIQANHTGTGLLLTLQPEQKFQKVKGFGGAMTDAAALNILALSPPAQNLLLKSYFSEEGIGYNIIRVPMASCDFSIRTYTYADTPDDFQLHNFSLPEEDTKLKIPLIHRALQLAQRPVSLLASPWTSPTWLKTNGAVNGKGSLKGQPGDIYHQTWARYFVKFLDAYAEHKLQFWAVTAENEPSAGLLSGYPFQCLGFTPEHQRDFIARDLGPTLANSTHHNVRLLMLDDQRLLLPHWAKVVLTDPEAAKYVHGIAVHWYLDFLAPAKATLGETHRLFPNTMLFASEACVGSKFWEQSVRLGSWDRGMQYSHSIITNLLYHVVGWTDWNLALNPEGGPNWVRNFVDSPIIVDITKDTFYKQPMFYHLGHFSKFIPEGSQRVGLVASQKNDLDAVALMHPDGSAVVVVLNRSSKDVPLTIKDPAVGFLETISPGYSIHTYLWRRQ

Potency, inactive:
COc1cccc(C2=NOC(C(=O)Nc3ccc(C(C)=O)cc3)C2)c1 (stereo unspecified) > 76.9 µM, Cc1cc(NC(=O)COC(=O)C2CCN(C(=O)c3ccc(Cl)cc3)CC2)no1 > 76.9 µM, O=C(c1ccco1)N1CCN(S(=O)(=O)c2ccc(S(=O)(=O)NC3CCCCC3)cc2)CC1 > 76.9 µM, COc1ccccc1CNC(=O)CCn1c(=O)sc2ccccc21 > 76.9 µM, COc1ccc(-c2nn(CCC(=O)O)cc2CCC(=O)O)cc1 > 76.9 µM, CCc1cccc(NS(=O)(=O)c2c(C)n[nH]c2C)c1 > 76.9 µM, Cc1cc(C)n(C(=O)CCC(=O)NCc2ccccc2)n1 > 76.9 µM, O=C(Nc1nn[nH]n1)c1cccc(Oc2ccccc2)c1 > 76.9 µM, O=C(Nc1nccs1)C1C2/C=C\CCCCC21 (stereo unspecified) > 76.9 µM, O=C(CSc1nc(N2CCCCC2)nc(N2CCCCC2)n1)N1CCc2ccccc21 > 76.9 µM, COc1ccc(C(c2nnnn2C2CCCC2)N2CCC(C(N)=O)CC2)c(OC)c1 (stereo unspecified) > 76.9 µM, Cc1ccc(C)c(NS(=O)(=O)c2ccc(NC(=O)c3ccco3)cc2)c1 > 76.9 µM, O=C(Nc1ccc(N2CCCCC2)c(Cl)c1)c1ncn[nH]1 > 76.9 µM, COc1ccccc1C(=O)N1CCN(c2nc3cc(C)c(C)cc3cc2C#N)CC1 > 76.9 µM, COC(=O)C1=C(N)Oc2cc(C)n(Cc3cccnc3)c(=O)c2C1c1ccccc1OC (stereo unspecified) > 76.9 µM, COc1ccc2oc(=O)c(C(=O)N3CCN(c4ccccc4C)CC3)cc2c1 > 76.9 µM, Cc1ccc(N(C(=O)Cn2nnc3ccccc32)C(C(=O)NCc2ccco2)c2cccnc2)cc1 (stereo unspecified) > 76.9 µM, CN1CCN(Cc2c(C#N)c3ccccc3n2C)CC1 > 76.9 µM, CC(C)C(c1nnnn1Cc1ccc(F)cc1)N1CCN(C2CCCCC2)CC1 (stereo unspecified) > 76.9 µM, COc1ccc(C(=O)n2nc(-c3ccc(Cl)cc3)nc2N)cc1OC > 76.9 µM, Cc1nnc(SCC(=O)N2CCN(S(=O)(=O)c3ccc(Cl)cc3)CC2)n(N)c1=O > 76.9 µM, CC1CCCN(c2ccc(C(=O)NCC3CCCO3)cn2)C1 (stereo unspecified) > 76.9 µM, O=C(c1ccco1)N1CCN(S(=O)(=O)c2ccc(C3CCCCC3)cc2)CC1 > 76.9 µM, Cc1cc(NC(=O)COC(=O)c2ccc(F)c(S(=O)(=O)N3CCOCC3)c2)no1 > 76.9 µM, COc1cccc(C(=O)OCCN2C(=O)c3ccccc3C2=O)c1OC > 76.9 µM, CCNC(=O)NC(=O)COc1ccccc1C#N > 76.9 µM, COc1cc(C2C3CN(C)CC=C3C(C#N)=C(N)C2(C#N)C#N)ccc1OC(C)C (stereo unspecified) > 76.9 µM, O=c1c2ccccc2nnn1CSc1nnc(COc2ccc(Cl)cc2)n1Cc1ccco1 > 76.9 µM, O=C(CN1CCN(c2ncccn2)CC1)Nc1ccccc1-n1cccc1 > 76.9 µM, O=C(O)C1CCCCC1C(=O)N1CC=C(c2ccccc2)CC1 (stereo unspecified) > 76.9 µM, COc1ccc(C2CC(c3cccc(OC)c3OC)n3nnnc3N2)cc1 (stereo unspecified) > 76.9 µM, COc1ccc(C(O)C(CN2CCOCC2)c2ccccc2)cc1F (stereo unspecified) > 76.9 µM, Cc1c(C(=O)NCCC2=CCCCC2)oc2ccc(S(=O)(=O)N3CCC4(CC3)OCCO4)cc12 > 76.9 µM, CCOC(=O)c1[nH]c(C)c(C(=O)OCC(=O)N2CCCCC2C)c1C (stereo unspecified) > 76.9 µM, O=C(Nc1cccnc1)c1cc(-c2ccco2)on1 > 76.9 µM, O=S(=O)(NC1CCN(Cc2ccccc2)CC1)c1cccc2cccnc12 > 76.9 µM, Cn1c(SCC(=O)NCc2ccc3c(c2)OCO3)nnc1-c1cccs1 > 76.9 µM, Cc1cc(=O)oc2c1c(C)nn2-c1nn[nH]n1 > 76.9 µM, CCOc1ccc2c(c1)c1nnc(SCC(=O)N3CCCCC3C)nc1n2C (stereo unspecified) > 76.9 µM, CCCCc1cc2c(c(NC(=O)CC)n1)c(=O)oc1ccccc12 > 15.4 µM, COc1ccc(N2CCN(CCCNC(=O)CCCn3c(=O)[nH]c4ccsc4c3=O)CC2)cc1 > 76.9 µM, Cc1nc(-c2cccc(S(=O)(=O)N3CC(C)OC(C)C3)c2)cs1 (stereo unspecified) > 76.9 µM, Cn1c(SCc2cnc(-c3ccccc3)s2)nnc1C1COc2ccccc2O1 (stereo unspecified) > 76.9 µM, Cn1c(=O)[nH]c(=O)c2c1nc(NCCc1ccccc1)n2CC(O)COc1ccccc1 (stereo unspecified) > 76.9 µM, O=C(O)CCCC(=O)NCCc1ccncc1 > 76.9 µM, N=c1nc(N)nc2n1NC(c1ccc(F)cc1)=CS2 > 76.9 µM, COc1cc(C2C3=C(Nc4ncnn42)c2ccccc2CC3)cc(OC)c1OC (stereo unspecified) > 76.9 µM, CN1C(=O)c2cccc(N(C)C)c2C1=O > 76.9 µM, Cc1ccc(CCNC(=O)C2CCN(C(=O)N(C)C)CC2)cc1 > 76.9 µM, COc1ccc(OC)c(NC(=O)Cn2cc(C(=O)c3ccco3)c3ccccc32)c1 > 76.9 µM, CCC(Sc1nc2cc3c(cc2c(=O)n1Cc1ccco1)OCO3)C(=O)Nc1cccc(OC)c1 (stereo unspecified) > 76.9 µM, CCc1nccn1S(=O)(=O)c1ccc2ccc(C)cc2c1 > 76.9 µM, C=CCSc1nc2ccccc2[nH]1 > 76.9 µM, CC(=O)c1cccc(N2C(=NC(=O)C(C)C)SC3CS(=O)(=O)CC32)c1 (stereo unspecified) > 76.9 µM, COc1ccc(-c2noc(CN(C)S(=O)(=O)c3ccccc3)n2)cc1OC > 76.9 µM, Cc1ccc2c(CSc3nnc(C4CC4)n3N)cc(=O)oc2c1 > 76.9 µM
